The record followed here is PubChem BioAssay AID488969 (Vanderbilt High Throughput Screening Facility, 2010).

Molecules are shown by their SMILES. Over roughly 110,000 compounds, “z-score” has its median near -0.1; the highest 2% begin near 2. This is one part of the list.

In this test the target is Metabotropic glutamate receptor 8 (Rattus norvegicus) (UniProt P70579). The experiment in a line: mGluR8 Gi/Go-coupled signaling modulation – cell-based, rat, thallium flux, HTS, primary screen (AID 488969). To be noted: HEK293 rat mGluR8, GIRK (G protein-gated inwardly rectifying potassium channel) thallium flux, FluoZin2; at 10 µM; stronger effect = higher value; submaximal glutamate (EC20) added with thallium.
Chain of UniProt P70579 (P70579 whole entry, looked up): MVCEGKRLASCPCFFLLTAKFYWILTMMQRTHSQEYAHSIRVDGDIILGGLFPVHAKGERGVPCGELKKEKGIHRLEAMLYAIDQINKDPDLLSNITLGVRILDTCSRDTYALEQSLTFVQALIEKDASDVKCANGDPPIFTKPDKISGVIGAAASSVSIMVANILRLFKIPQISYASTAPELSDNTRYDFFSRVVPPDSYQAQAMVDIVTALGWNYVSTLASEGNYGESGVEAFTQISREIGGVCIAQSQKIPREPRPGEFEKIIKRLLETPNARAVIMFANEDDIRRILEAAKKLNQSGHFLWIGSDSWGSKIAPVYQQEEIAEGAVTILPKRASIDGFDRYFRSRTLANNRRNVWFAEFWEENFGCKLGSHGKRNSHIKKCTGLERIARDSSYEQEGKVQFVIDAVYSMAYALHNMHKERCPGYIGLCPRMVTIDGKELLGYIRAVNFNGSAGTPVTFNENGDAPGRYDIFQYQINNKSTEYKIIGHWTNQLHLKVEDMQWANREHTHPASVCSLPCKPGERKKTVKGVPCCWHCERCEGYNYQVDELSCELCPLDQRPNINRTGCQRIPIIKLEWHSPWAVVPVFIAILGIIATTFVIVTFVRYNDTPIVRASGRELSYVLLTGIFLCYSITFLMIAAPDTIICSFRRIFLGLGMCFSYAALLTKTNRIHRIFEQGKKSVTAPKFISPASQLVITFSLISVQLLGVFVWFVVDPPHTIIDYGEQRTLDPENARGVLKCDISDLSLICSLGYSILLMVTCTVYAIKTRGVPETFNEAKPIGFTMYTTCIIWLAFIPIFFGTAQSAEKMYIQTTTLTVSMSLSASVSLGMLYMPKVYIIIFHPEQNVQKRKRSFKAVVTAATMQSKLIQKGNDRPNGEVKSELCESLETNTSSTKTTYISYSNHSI
As for `Cc1cc(Nc2nnnn2-c2ccccc2)n(-c2ccccc2)n1`, the z-score was 0.258.
In turn, `O=C(c1ccccc1)N(c1ccccc1)C1C=CS(=O)(=O)C1` (stereo unspecified) had a z-score of -0.0857.
For `CC12CC(NC(=O)N1c1cccc(C(=O)NCc3ccc4c(c3)OCO4)c1)c1cc(Cl)ccc1O2` (stereo unspecified) the value was 0.369; for `C(=N\NC(=Nc1ccccc1)c1ccccn1)/c1ccccn1`, -0.0731; for `Cc1ccc(NC(=O)/C(=C/c2cccs2)NC(=O)c2ccco2)c(C)c1`, -0.015.
For `Fc1ccc(-n2cc(-c3ccccc3)c3c(NN4CCOCC4)ncnc32)cc1` the value was -0.464; for `C=CCN1CC(c2nc3ccccc3n2Cc2cccc3ccccc23)CC1=O` (stereo unspecified), -0.17.
For `Cc1onc(-c2c(Cl)cccc2Cl)c1C(=O)NCc1cccs1` the value was -0.0151; for `CN(CC(=O)N1CCCC1)S(=O)(=O)c1cc(Cl)ccc1Cl`, -0.688; for `COCCOCCOCCC(=O)NC1CC2CCC1(C)C2(C)C` (stereo unspecified), 0.0839.
In the case of `CC(C)Oc1ccc(C(CC(=O)O)NC(=O)c2cccs2)cc1` (stereo unspecified), the z-score was 0.0523.
Under `CCOC(=O)c1sc(NC(=O)c2cc(-c3ccccc3)nc3ccccc23)c(C#N)c1C` stands -0.494.
Under `CC(Sc1nnc2ccccn12)C(=O)Nc1ncc(Cl)cc1Cl` (stereo unspecified) stands 0.159; under `Cc1[nH]c2ccccc2c1C(=O)CSC(=S)N(C)C1CCCCC1`, -0.169; under `CCOc1ccc(Nc2nc(N3CCCCC3)nc(N3CCCCC3)n2)cc1`, 1.13.
Under `O=C(CC1Nc2ccccc2NC1=O)NCC1COc2ccccc2O1` (stereo unspecified) stands 0.612.
`CC1CN(CCCCOc2ccc(C(C)C)cc2)CC(C)O1` (stereo unspecified): the z-score came out at 0.881.
Take `CCCOc1ccccc1C1NC(=O)NC(C)=C1C(=O)OCCOCC` (stereo unspecified): the z-score is -0.0351.
Under `CC1(C)CC(=O)N(CC(=O)O)c2ccccc2S1(=O)=O` stands -0.22; under `CCOC(=O)N1CCN(C(=O)c2ccc3c(c2)N(CC)CCS3)CC1`, 0.39; under `COc1ccc(OCCSc2nnc(C)n2-c2ccccc2)cc1`, 0.0666.
For `CCCn1c2ccccc2c2nnc(SCc3[nH]c(=O)[nH]c3C(=O)CCCCC(=O)OCC)nc21` the value was -0.219; for `Brc1cc2[nH]cnc2c2ccccc12`, 0.225; for `Cc1csc(NC(=O)CCCSc2nc3ccccc3s2)n1`, -0.0589.
For `COC(=O)NCC1(C)CC(NC(=O)OC)CC(C)(C)C1` (stereo unspecified) the value was 0.226.
For `Cc1ccc(Sc2oc(/C=N/n3cnnc3)cc2Br)cc1`, the z-score was determined as 0.863.
`Cc1cc(NC(=O)CCC(=O)N(c2cccnc2)C(C(=O)NC2CCCC2)c2ccccc2F)no1` (stereo unspecified) yielded a z-score of 0.385.
Under `Cc1nc2ccccc2n1CC(O)Cn1c(C(F)(F)F)nc2ccccc21` (stereo unspecified) stands 0.454; under `N/C(=N\OC(=O)Oc1ccccc1)c1ccc(Br)cc1`, -0.0306; under `CCOC(=O)C1CCN(C(=O)c2ccccc2N(C)S(C)(=O)=O)CC1`, 0.472.
Under `COc1cccc(OC)c1C(=O)N1CCOCC1` stands -0.00658.
